Data published in PubChem BioAssay AID1347120 (National Center for Advancing Translational Sciences (NCATS), 2019).
Among all 390,000 compounds or so, about 930 (0.24%) were called active. This list was built around the results that the source calls inconclusive (neither active nor inactive); the mix of calls is not that of the screen. Calls follow the shape of the dose curve; as a rule, active = well fitted activation curve with a large enough effect; inconclusive = small, poorly fitted or top-dose-only effect; inactive = no such curve, though single readings can be large or run the other way. Where the call is inconclusive, the potency comes from a doubtful curve fit.

assay: qHTS for Suppressors of FUS Proteinopathy: Primary screen using FUS-linked yeast assay; also: nearly all actives have a fitted effect of over 55% in size;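 as to growth rescue (activation): plate controls were DMSO vehicle for no effect and reference control for full effect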; settings: S. cerevisiae FUS-expressing, OD600, 24 h; Potency: growth rescue; growth rescue (activation): at 76.6 µM (top of the series)
How it was run: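 S. cerevisiae expressing FUS from galactose induction served as the toxicity model. Growth after 24hr at 30C, read as absorbance at 600 nm, indicates suppression of toxicity; compounds dosed at several concentrations.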
Potency is read from the fitted curve at half-maximal effect; tags tell the direction and shape of the fitted curve.

SMILES | Potency | growth rescue (activation)
CCc1cccc(C)c1Nc1c(-c2ccc(N3CCOCC3)cc2)nc2ncccn12 | inconclusive: 44.7 µM [activator, partial curve, poor fit] | –
O=C(CCc1ccccc1)N[C@H]1[C@@H](OC(=O)c2ccco2)CCC[C@]12C(=O)N(Cc1ccccc1)c1ccccc12 | inconclusive: 20 µM [activator, partial curve, poor fit] | –
Cc1ccc(-n2nc(CO)c(C(=O)NCCc3ccccc3)n2)cc1C | inactive | –
COc1ccc(C(CNC(=O)c2cccc(S(=O)(=O)Nc3ccccc3Cl)c2)N2CCOCC2)cc1 (centres undefined) | inconclusive: 17.8 µM [activator, partial curve, poor fit] | –
O=C1C=C(OCCF)CC(c2ccc(Br)cc2)O1 (centres undefined) | inconclusive: 25.1 µM [activator, partial curve, poor fit] | –
CC(=O)N1CCN(c2ccc(NCc3cccc4ccccc34)cc2)CC1 | inconclusive: 14.1 µM [activator, partial curve] | –
COc1cccc(NS(=O)(=O)c2ccc3[nH]cc(C(=O)NC4CCCCC4)c(=O)c3c2)c1 | inconclusive: 35.5 µM [activator, single point] | –
Cc1cc(NS(=O)(=O)c2ccc(NC(=O)COc3c(C)cc(Br)cc3C)cc2)no1 | inconclusive: 22.4 µM [activator, partial curve, poor fit] | –
CCOC(=O)N1CCN(C(=O)COc2ccc(S(=O)(=O)NCc3ccccc3)cc2)CC1 | – | inconclusive: 51.5% [activator]
COc1ccc(NC(=O)N(C)C[C@@H]2OCc3ccccc3-c3c(n(C)c4ccccc34)C(=O)N([C@H](C)CO)C[C@H]2C)c(OC)c1 | inconclusive: 17.8 µM [activator, partial curve, poor fit] | –
CCn1cc2nc(SCc3cccc(OC)c3)n(Cc3ccc(Cl)cc3)c(=O)c2n1 | inconclusive: 31.6 µM [activator, single point] | –
N#Cc1ccc(OC[C@@H](O)CN2CCC(C(O)(c3ccccc3)c3ccccc3)CC2)cc1 | inactive | –
COc1ccccc1NC(=O)c1cc(C(=O)O)ccc1C(=O)O | inconclusive: 44.7 µM [activator, single point] | –
Cc1ccc(NC(=S)N(CCCN2CCCC2)Cc2cccn2Cc2ccc(Cl)cc2)cc1 | inconclusive: 35.5 µM [activator, partial curve, poor fit] | –
CCCN1C(=O)CN(C2CCCCCC2)C(=O)C1c1ccc(OCC)c(OC)c1 (centres undefined) | inactive | –
Cc1ccc(S(=O)(=O)N2CCN(C(=O)COC(=O)c3ncc(Cl)c(Cl)c3Cl)CC2)c(C)c1 | inconclusive: 14.1 µM [activator, partial curve, poor fit] | –
CCN(CC(=O)Nc1ccccc1C(F)(F)F)C(=O)CN1C(=O)NC(C)(c2ccc3ccccc3c2)C1=O (centres undefined) | inconclusive: 50.1 µM [activator, single point] | –
COc1ccccc1CCNC(=O)Cc1c(C)c2c(cc(C)c3c(C)coc32)oc1=O | inactive | –
NS(=O)(=O)c1ccc2nc(NC(=O)CS(=O)(=O)c3ccc(F)cc3)sc2c1 | inconclusive: 31.6 µM [activator, partial curve, poor fit] | –
C[C@H](CO)N1C[C@H](C)[C@H](CN(C)S(=O)(=O)c2cccs2)Oc2ncc(-c3cc4ccccc4o3)cc2C1=O | inconclusive: 28.2 µM [activator, single point] | –

SMILES | Potency | growth rescue (activation)
Cc1ccc(-c2cc(-c3ccc(C)o3)nc(N)c2C#N)cc1 | inconclusive: 31.6 µM [activator, partial curve] | –
COC(=O)[C@]12C[C@H](CC(=O)NCc3ccc(C)o3)C(=O)N(Cc3ccco3)C1=C[C@H](C(C)(C)C)O[C@@H]2C | inconclusive: 25.1 µM [activator, single point] | –
CCN(C(=O)C1CCN(c2nc(-c3ccc(OC)cc3)no2)CC1)c1ccccc1 | inconclusive: 31.6 µM [activator, partial curve] | –
COc1ccc(-c2[nH]ncc2C(=O)NCc2ccc(F)cc2)cc1 | inactive | –
CCc1noc(C)c1C(=O)N(CC)CC(=O)NCc1ccc(Cl)cc1 | inconclusive: 28.2 µM [activator, single point] | –
COC(=O)c1ccc(NC(=O)Cc2ccccc2)cc1 | inactive | –
COc1ccc(NC(=S)N2CCc3ccccc32)cc1OC | inconclusive: 35.5 µM [activator, partial curve, poor fit] | –
Cc1ccccc1NC(=O)CN(C)S(=O)(=O)c1cccc2nsnc12 | inactive | –
N#Cc1ccc2[nH]cc(C3c4cc(F)ccc4C=C(c4ccsc4)N3c3ccc(C#CCCO)cc3)c2c1 (centres undefined) | inconclusive: 35.5 µM [activator, single point] | –
Cc1ccc(C(C)C)c(OCC(=O)Nc2ccc3c(c2)nc(CN2CCCC2)n3C)c1 | inconclusive: 12.6 µM [activator, partial curve, poor fit] | –
COC(=O)c1ccc(CNCC(O)COc2ccc(-c3ccccc3)cc2)cc1 (centres undefined) | inactive | –
Cc1cccc(NC(=O)Cn2nc(N3CCN(c4ccccc4)CC3)ccc2=O)c1C | inconclusive: 35.5 µM [activator, single point] | –
O=C(c1ccoc1)N1CCN(c2cc(-c3ccncc3)nc3cc(-c4cccc(Cl)c4)nn23)CC1 | inactive | –
COc1ccccc1CNc1nc(-c2ccco2)nn1S(=O)(=O)c1ccc(Cl)cc1 | inconclusive: 35.5 µM [activator, partial curve, poor fit] | –
COc1cccc(CNc2nc3nc(C)c(Cl)c(C)n3n2)c1 | inconclusive: 14.1 µM [activator, partial curve, poor fit] | –
O=C(c1ccc(S(=O)(=O)N2CCCCC2)cc1)N1CCCc2ccccc21 | inactive | –
O=C(c1ccc(Cl)cc1Cl)N1CCSCC1 | inactive | –
Cc1ccc2c(CN3C(=O)NC(C)(c4ccc5c(c4)OCO5)C3=O)cc(=O)oc2c1 (centres undefined) | inconclusive: 10 µM [activator, full curve] | –
Cc1cccc(-c2nc(Nc3cccc(O)c3)c3ccccc3n2)c1 | inactive | –
